Results published in article PMC12136788.
This is one part of the list.

B1: chr10:61005495:61005496:+_ENSG00000165443_ENST00000486074|hu_hu|motif|central (ssRNA)
RNA: GGGAGUUCUACAGUCCGACGAUCAACUUAGGGUAUUUCAUCAUUGAAAGUAGUGGGAGGGGUAGGGAAUAGGAAAACACGGAAAUGGUUCUGAAUGAAAUUUGGAAAGUGGUAGUUGUUUGUUUUGGUGACAGUGGCAUGUGCCAACAGAGGAUUGAGCAUCA
B2: chr7:75932113:75932114:+_ENSG00000106211_ENST00000248553|hu_hu|hu_hu_hu_mus_False|1_18 (ssRNA)
RNA: GGGAGUUCUACAGUCCGACGAUCCUGCGACCACUCAUCGGGCAACCGGGGCACCCCGAAAGCUUGAUCGAAGAGGCGGCUGUGUGCAGGGUACCAGUCCCGGAAUGGUUCCCAGCUGCCCCGCAGGAGCAGCGAGAGGACGCGCAACAGAGGAUUGAGCAUCA
B3: chr11:94923035:94923036:-_ENSG00000149212_ENST00000536441|hu_mus|FALSE|FALSE (ssRNA)
RNA: GGGAGUUCUACAGUCCGACGAUCUCCAGUUUUGACAAGUUUCUGAAUGUGCUCUUUUGUGAUCAGCCAGGGCCGGUGUGCCAGCAGCUUGUUAAUUUCAUUAAGAUUUCUCAGUCUUUGUGGUACAUAUUCCAAGCCAUUCAGCAACAGAGGAUUGAGCAUCA
B4: chr5:171327072:171327073:-_ENSG00000072803_ENST00000265094|hu_hu|motif|central (ssRNA)
RNA: GGGAGUUCUACAGUCCGACGAUCUACCAGCUCUGCUGCACACAGAGACCUGGCAUCCAGGUACGAAAGAAUGUUUUCUGCGGUGUGAUCUAAGCCUUGCUCUGGUAAAGCGGUAAUAAAGUCCCGCUGCAACAUGGGCUUCAGCAACAGAGGAUUGAGCAUCA
B5: chr16:37881740:37881741:+_ENSMUSG00000034158_ENSMUST00000078717|mus_mus|FALSE|FALSE (ssRNA)
RNA: GGGAGUUCUACAGUCCGACGAUCAGACCGAUCAACUGAAUUUUGAACUGCCAUUCACAAUAAAUUACACUCAAAGAAUCUAAACAGGGAACUGGACUCAUUCCUGCCGAAUGUGUAGACAGAAUGCAAAACCUUUCUUUCACACAACAGAGGAUUGAGCAUCA
B6: chr1:46159212:46159213:+_ENSG00000159596_ENST00000372025|hu_mus|FALSE|FALSE (ssRNA)
RNA: GGGAGUUCUACAGUCCGACGAUCUCUGAUCCCUCCCAAGAAAGCUAGGAAACCGGCUCCAUAAGCCAUCUGAGUGAAAGCUAGGACGGGGAUAUAAGACUUUGUUAUUACCAUGAGAAGUGGGGGAGCAGUAAAGGGGAUUAACAACAGAGGAUUGAGCAUCA
B7: 68524799_68524919_2729_3pUTR_ENSG00000110090_ENST00000265641|human|control|control (ssRNA)
RNA: GGGAGUUCUACAGUCCGACGAUCCCACAACCCUACUAAUUCCUUCAUUAACUCAACAAGAUUUGCAUCCCUUAAUAAAUCCAAGCCGAUGCGGAGACAUCAGGGGAGACUUUAUCAGAUGUCCCCCAAGGGAGGGCAAGUCUGCAACAGAGGAUUGAGCAUCA
B8: 10576428_10576548_1610_3pUTR_ENSMUSG00000024668_ENSMUST00000025570|mouse|control|control (ssRNA)
RNA: GGGAGUUCUACAGUCCGACGAUCUGUGAGGUAACUGAUGCUGAUUCCCGCUUCCCUCCCUGGCCAGGGAACUUUUUCCUAUAGCUCUUGUAGUUACCCACCCAGGCUUCUCAGUUCUGGCCUGCUUUCUCUAGCCAACACUCACAACAGAGGAUUGAGCAUCA
B9: chr4:17845017:17845018:+_ENSG00000109805_ENST00000514176|hu_mus|hu_hu_hu_mus_False|98_98 (ssRNA)
RNA: GGGAGUUCUACAGUCCGACGAUCGCUCUCUUAACUUGAUCUUCAUUUAAGGAACUCUGCAAGGUUAAGUUUACUUUUCUGUAGCGCAGCUGUUUUGGCUCGUCUGGGUAAUCUCAUCUUCAUUUCUGAUGGUGGUUCAUGAUCCAACAGAGGAUUGAGCAUCA
B10: chr3:108421708:108421709:+_ENSMUSG00000040389_ENSMUST00000051145|mus_hu|motif|central (ssRNA)
RNA: GGGAGUUCUACAGUCCGACGAUCGCCAAGAAGCACUUCGCUUUCUGUAAUUUCUUCUCCAGUUGCUUUACUCUGACAAAAUUCGGCACAGCAUUCAUAAAGCAGGCCUUUCAUUACAAGCUGAAAUAAACGAUUGUUACUAGCCAACAGAGGAUUGAGCAUCA
B11: chr15:30001172:30001173:-_ENSG00000104067_ENST00000400011|hu_mus|FALSE|FALSE (ssRNA)
RNA: GGGAGUUCUACAGUCCGACGAUCUGGUGGUCUGAAAGUUGCUGGUUUACUCUGAGAUGGGGGUGGGUCUGGUUUGGACAUAUAUGAGUUCUGAAAAUCCAAUGAUACUGAGUUGCCUUCACCCUGGGCGCCCUUGGAAUGUAUCAACAGAGGAUUGAGCAUCA
B12: chr15:43486971:43486972:+_ENSG00000166946_ENST00000300213|hu_mus|FALSE|FALSE (ssRNA)
RNA: GGGAGUUCUACAGUCCGACGAUCGAGCGCCUUAAUUCUGUUCAUGCAAUGGUCAACGGCAUUAAUGAGUAAAGGAAUCCAGCUAUCUCCUGGGUGGGGGCUCACGUGACUUGCUUUUGUAAUUUCAAGAGCCUUUAUUAAAACCAACAGAGGAUUGAGCAUCA
B13: chr5:21252845:21252846:+_ENSMUSG00000029017_ENSMUST00000030882|mus_hu|FALSE|FALSE (ssRNA)
RNA: GGGAGUUCUACAGUCCGACGAUCUGUUUGCAACCAUGAGACAGAUUGUAUCUGGAUGUGCCCAACCAACAGCUUCAACAGCUAUUGCAAGGUGCGCCAAAGGCAUCUUGUCAUCCCUCACACGAAUCUCACUUCCUGUGAAUUCAACAGAGGAUUGAGCAUCA
B14: chr4:144460044:144460045:+_ENSG00000153147_ENST00000283131|hu_mus|hu_hu_hu_mus_False|28_98 (ssRNA)
RNA: GGGAGUUCUACAGUCCGACGAUCACGGUCCAUAGCCUGAAGAUCUACUUGCGGAUUCCAAUCUGAGUCAUAUAAAAUGACUACAUCAGCAGUUGCAAGAUUGAUGCCAAGACCACCAGCACGUGUGCUUAGCAUAAAUACAAACAACAGAGGAUUGAGCAUCA
B15: chr2:65473824:65473825:+_ENSG00000138071_ENST00000260641|hu_mus|FALSE|FALSE (ssRNA)
RNA: GGGAGUUCUACAGUCCGACGAUCGUUUUUGGUUGGAUUCAUGGGAGGUUCUGUAAGUAAAAUCUUGCAGUUUCUGGUGUCUAUAUUGAGUUUCUCUGGUCCAAAUGUGUAGUCCCACAGGUGCUUCAUGUCAUCCCAAUUCCGCAACAGAGGAUUGAGCAUCA
B16: chr1:39494564:39494565:+_ENSG00000168653_ENST00000372967|hu_hu|hu_hu_hu_mus_True|8_98 (ssRNA)
RNA: GGGAGUUCUACAGUCCGACGAUCAUGCAUUCGCCUCAUCGUUUUCUACCGAAGCAAGCACUCUUCGAAGUCAUCGAACUCUAUCUUGCACUCCUUUUUCGCCCGGGUCCCACCGAUCCCGUGUGCACAUUCUAUCCACUCUUUCAACAGAGGAUUGAGCAUCA
B17: chr5:138658563:138658564:+_ENSG00000015479_ENST00000502499|hu_mus|FALSE|FALSE (ssRNA)
RNA: GGGAGUUCUACAGUCCGACGAUCAUCUUUUUUCACAGCUUUAUCUGAAGGCUCCUUUUUCCCAUCAGAAGAUACAUCCCCUAAAUUAGCAAGAUCGGUCUCAUCGCCCACUGAACUACCACUUUCUAGUAGUGCUGCAGCUUCCAACAGAGGAUUGAGCAUCA
B18: chr9:111175386:111175387:+_ENSMUSG00000046785_ENSMUST00000060711|mus_hu|motif|central (ssRNA)
RNA: GGGAGUUCUACAGUCCGACGAUCUUCCGUUAGUAAAGUCUGAAAUUCAGGUCGCCUAACGCCUCUGGUCUUAAUCAAAACGGUCCAUUCGGAUAUGGUAUUUAUGAUCUGAUUAACAUCUACAUCAUAGGAGCUCAACAGUUCCAACAGAGGAUUGAGCAUCA
B19: 85046632_85048575_835_CDS_ENSMUSG00000024253_ENSMUST00000025101|mouse|control|control (ssRNA)
RNA: GGGAGUUCUACAGUCCGACGAUCGUCAGGAACAGGAGGAGACCCUAUCUGACAUAAAGAAUCCAGUCCUGCUGUGAUAAACAGUGGCUUAUUUUGAUCCACACAUAUUGAUUUGCUUUUAUCAAUACCGAAUGCCAACUGGUUCAACAGAGGAUUGAGCAUCA
B20: 96264416_96274638_1980_CDS_ENSG00000134874_ENST00000376829|human|control|control (ssRNA)
RNA: GGGAGUUCUACAGUCCGACGAUCUAUAUGUGACAGGAGCCGACCCUUCUCUUUCUUGUGUUCUUGAUGAAUAGCUUGAACUCGAGCUGUCCAUUUGCUUUCCUGACUAUCAAGAAGCUGCAUGACAUUAUGGAAAUCCUGGGGCAACAGAGGAUUGAGCAUCA
B21: chr2:31460152:31460153:+_ENSMUSG00000026843_ENSMUST00000055244|mus_hu|motif|central (ssRNA)
RNA: GGGAGUUCUACAGUCCGACGAUCAUUCUGGAUCUUUUUGAUCAUUUCCCCGUUUCUUCCUAUUACAAUCCCCACAGCAAACCGGGGCACAGAUACCUCUAUACUGCCUCCUCCCAUUCGAGAGUUGAAAUCGCCGCGUACACCCAACAGAGGAUUGAGCAUCA
B22: chr17:60770872:60770873:+_ENSG00000011028_ENST00000303375|hu_hu|hu_hu_hu_mus_True|18_108 (ssRNA)
RNA: GGGAGUUCUACAGUCCGACGAUCUCUCUUUUCUUUUAAAAAAAAAGACAAACAAUAAUAGCACAUUUCGAGAAUCAAGAACUACAAUAGAGGGUCCGCUUUGAGUUUUUGUUCACAACAUUGUCCCCUGGGACACGGGGACUGCAACAGAGGAUUGAGCAUCA

Molecular target: T1, UNK ZnF1-3 (human, UniProt Q9C0B0 31-174)
T1 sequence: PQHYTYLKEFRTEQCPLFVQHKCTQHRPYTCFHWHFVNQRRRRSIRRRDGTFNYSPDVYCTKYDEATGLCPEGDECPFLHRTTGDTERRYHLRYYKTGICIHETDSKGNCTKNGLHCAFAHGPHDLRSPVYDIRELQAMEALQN
Assay: nsRBNS (natural sequence RNA bind-n-seq); RBNS binding buffer (assumed for nsRBNS): 25 mM Tris pH 7.5, 150 mM KCl, 3 mM MgCl2, 0.01% Triton X-100, 500 ug/ml BSA, 20 U/ml SUPERase-In, 4 C; UNK is unkempt and MSI1 is Musashi-1; names of the RNAs are library labels; protein concentration not given here; high values mean tight binding

Point of comparison: B11, binding signal 0.981 enrichment R. Against it:
- B1 — higher, 1.93 enrichment R
- B2 — lower, 0.969 enrichment R
- B3 — lower, 0.827 enrichment R
- B4 — lower, 0.868 enrichment R
- B5 — higher, 1.06 enrichment R
- B6 — higher, 1.53 enrichment R
- B7 — higher, 1.46 enrichment R
- B8 — lower, 0.713 enrichment R
- B9 — lower, 0.419 enrichment R
- B10 — higher, 1.11 enrichment R
- B12 — higher, 1.47 enrichment R
- B13 — lower, 0.644 enrichment R
- B14 — lower, 0.843 enrichment R
- B15 — lower, 0.607 enrichment R
- B16 — lower, 0.62 enrichment R
- B17 — lower, 0.856 enrichment R
- B18 — lower, 0.701 enrichment R
- B19 — lower, 0.768 enrichment R
- B20 — lower, 0.724 enrichment R
- B21 — lower, 0.888 enrichment R
- B22 — higher, 1.3 enrichment R
